Data: the supplement of paper PMC6089552
The whole screen tested about 3,200 compounds, of which about 300 (9.4%) showed activity. The entries are a selection whose mix differs from that of the whole data set.

Tested on: A673/TR/shEF
Test: cell viability (LOESS-normalised, relative to median of negative controls) (log2 ratio); higher = more viable cells (less compound effect), active = hit call of the paper (over 3 MAD below the median)
Details: treatment time: 72 h
Method in brief: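 For three days, A673/TR/shEF Ewing sarcoma cells in 384-well plates (1,500 per well) were treated with library compounds at two or more concentrations or with DMSO controls, after doxycycline had been added or withheld 24 h beforehand to induce EWS-FLI1 shRNA knockdown. Viability was read by CellTiter-Glo luminescence on an Envision reader. The data were LOESS-corrected per plate, divided by the median of negative controls and log2-transformed.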

[1] = 0.25 µM, library screen: screen1, EWS-FLI1 expression: high (no doxycycline)
[2] = 0.25 µM, library screen: screen1, EWS-FLI1 expression: low (doxycycline-induced shRNA knockdown)
[3] = 2.5 µM, library screen: screen1, EWS-FLI1 expression: high (no doxycycline)
[4] = 2.5 µM, library screen: screen1, EWS-FLI1 expression: low (doxycycline-induced shRNA knockdown)
[5] = 0.103 µM, library screen: screen3, EWS-FLI1 expression: high (no doxycycline)
[6] = 0.103 µM, library screen: screen3, EWS-FLI1 expression: low (doxycycline-induced shRNA knockdown)
[7] = 0.25 µM, library screen: screen2, EWS-FLI1 expression: high (no doxycycline)
[8] = 0.25 µM, library screen: screen2, EWS-FLI1 expression: low (doxycycline-induced shRNA knockdown)
[9] = 0.308 µM, library screen: screen3, EWS-FLI1 expression: high (no doxycycline)
[10] = 0.308 µM, library screen: screen3, EWS-FLI1 expression: low (doxycycline-induced shRNA knockdown)
[11] = 0.926 µM, library screen: screen3, EWS-FLI1 expression: high (no doxycycline)
[12] = 0.926 µM, library screen: screen3, EWS-FLI1 expression: low (doxycycline-induced shRNA knockdown)
[13] = 2.5 µM, library screen: screen2, EWS-FLI1 expression: high (no doxycycline)
[14] = 2.5 µM, library screen: screen2, EWS-FLI1 expression: low (doxycycline-induced shRNA knockdown)
[15] = 2.8 µM, library screen: screen3, EWS-FLI1 expression: high (no doxycycline)
[16] = 2.8 µM, library screen: screen3, EWS-FLI1 expression: low (doxycycline-induced shRNA knockdown)
[17] = 8.3 µM, library screen: screen3, EWS-FLI1 expression: high (no doxycycline)
[18] = 8.3 µM, library screen: screen3, EWS-FLI1 expression: low (doxycycline-induced shRNA knockdown)
[19] = 25 µM, library screen: screen3, EWS-FLI1 expression: high (no doxycycline)
[20] = 25 µM, library screen: screen3, EWS-FLI1 expression: low (doxycycline-induced shRNA knockdown)

Measured: cell viability (log2)

O=C(O)c1cc(=O)c2cccc(O)c2[nH]1
inactive: [1] 0.0329 | [2] 0.0229 | [3] 0.163 | [4] 0.138

O=c1[nH]cc(F)c(=O)[nH]1
inactive: 0.025 µM, library screen: screen2, EWS-FLI1 expression: high (no doxycycline) 0.207 | 0.025 µM, library screen: screen2, EWS-FLI1 expression: low (doxycycline-induced shRNA knockdown) 0.0564 | [5] 0.0782 | [6] 0.0161 | [1] 0.0591 | [2] -0.00519 | [7] 0.172 | [8] 0.0764 | [9] 0.113 | [10] 0.0726 | [11] 0.13 | [12] 0.0535 | [3] 0.0991 | [4] 0.0157 | [13] 0.104 | [14] 0.00707 | [15] 0.139 | [16] 0.018 | [17] 0.0774 | [18] 0.0748 | 25 µM, library screen: screen2, EWS-FLI1 expression: low (doxycycline-induced shRNA knockdown) -0.051 | [19] -0.0664 | [20] -0.00616
active: 25 µM, library screen: screen2, EWS-FLI1 expression: high (no doxycycline) -0.375

CS(=O)(=O)c1ccc([C@@H](O)[C@@H](CO)NC(=O)C(Cl)Cl)cc1
inactive: [1] 0.062 | [2] 0.0659 | [3] 0.0213 | [4] 0.137

CC(C)Cc1ccc([C@H](C)C(=O)O)cc1
inactive: [7] 0.0883 | [8] 0.0771 | [13] 0.157 | [14] 0.112

N[C@H](C(=O)O)[C@H](O)C(=O)O
inactive: [1] 0.18 | [2] 0.0569 | [7] 0.178 | [8] 0.0677 | [3] 0.199 | [4] 0.0519 | [13] 0.126 | [14] 0.101

COC(=O)[C@H]1[C@H]2C[C@@H]3c4[nH]c5cc(OC)ccc5c4CCN3C[C@H]2C[C@@H](OC(=O)c2cc(OC)c(OC)c(OC)c2)[C@@H]1OC
inactive: [5] 0.0733 | [6] 0.0139 | [1] 0.204 | [2] 0.178 | [9] 0.0695 | [10] 0.0618 | [11] -0.0278 | [12] 0.0749 | [3] 0.167 | [4] 0.286 | [15] 0.0985 | [16] 0.0485 | [17] 0.105 | [18] -0.0147 | [19] 0.0954 | [20] 0.0118

Cc1ccsc1C=C1SC(=S)N(CC(=O)O)C1=O
inactive: [1] 0.0973 | [2] 0.0799 | [3] 0.133 | [4] 0.152

N[C@H](Cc1ccccc1)C(=O)O
inactive: [1] 0.0727 | [2] 0.054 | [3] 0.169 | [4] 0.0792

O=c1c(-c2ccc(O)cc2)coc2cc(O)cc(O)c12
inactive: 0.025 µM, library screen: screen1, EWS-FLI1 expression: high (no doxycycline) 0.0443 | 0.025 µM, library screen: screen1, EWS-FLI1 expression: low (doxycycline-induced shRNA knockdown) -0.0387 | [1] 0.00753 | [2] 0.0689 | [7] 0.117 | [8] 0.0875 | [3] 0.106 | [4] 0.0455 | [13] 0.0598 | [14] 0.0712 | 25 µM, library screen: screen1, EWS-FLI1 expression: high (no doxycycline) 0.00624 | 25 µM, library screen: screen1, EWS-FLI1 expression: low (doxycycline-induced shRNA knockdown) 0.0488

C[C@H](NC(=O)Cc1cc(F)cc(F)c1)C(=O)N[C@@H]1C(=O)N(C)c2ccccc2-c2ccccc21
inactive: [5] -0.0495 | [6] -0.0175 | [9] -0.0169 | [10] 0.0261 | [11] -0.0343 | [12] -0.000446 | [15] -0.167 | [16] 0.0265 | [17] -0.145 | [18] -0.0275 | [19] -0.132 | [20] -0.0825

CN=C(NC#N)NCCSCc1nc[nH]c1C
inactive: [5] 0.0652 | [6] 0.116 | [1] 0.102 | [2] 0.00599 | [7] 0.174 | [8] 0.0763 | [9] 0.101 | [10] 0.0801 | [11] 0.128 | [12] 0.0772 | [3] 0.146 | [4] 0.0727 | [13] 0.0641 | [14] 0.048 | [15] 0.18 | [16] 0.0822 | [17] 0.114 | [18] 0.075 | [19] 0.114 | [20] 0.136

[Cl-].[Li+]
inactive: [7] 0.182 | [8] 0.0501 | [13] 0.154 | [14] 0.103

CCN(CC)CCNC(=O)c1ccc(NC(C)=O)cc1
inactive: [7] 0.0543 | [8] 0.0652 | [13] 0.101 | [14] 0.0714

CCCCCCN(CCCCCC)C(=O)Cc1c(-c2ccc(F)cc2)[nH]c2ccccc12
inactive: [7] 0.209 | [8] -0.0384 | [13] 0.0375 | [14] 0.0854

N[C@@H](Cc1cnc[nH]1)C(=O)O
inactive: [7] 0.191 | [8] -0.014 | [13] 0.0336 | [14] 0.0663

CC(=O)NNC(=O)N1Cc2ccccc2Oc2ccc(Cl)cc21
inactive: [7] 0.0851 | [8] 0.0315 | [13] 0.115 | [14] 0.0739

CNC[C@H](O)c1cccc(O)c1
inactive: [1] 0.117 | [2] 0.145 | [7] 0.178 | [8] 0.0908 | [3] 0.168 | [4] 0.172 | [13] 0.16 | [14] 0.0449

N=C(N)SCCc1cnc[nH]1
inactive: [7] 0.0723 | [8] 0.107 | [13] 0.124 | [14] 0.153

C[C@]12CC[C@@H](O)C[C@H]1CCc1ccccc12
inactive: [1] 0.111 | [2] 0.098 | [3] 0.147 | [4] 0.145

O=C(O[C@@H]1Cc2c(O)cc(O)cc2O[C@@H]1c1cc(O)c(O)c(O)c1)c1cc(O)c(O)c(O)c1
inactive: [1] -0.0662 | [2] 0.0913 | [3] 0.0131 | [4] 0.0765

CC[C@H](CC[C@@H](C)[C@H]1CC[C@H]2[C@@H]3CC=C4C[C@@H](OC(C)=O)CC[C@]4(C)[C@H]3CC[C@]12C)C(C)C
inactive: [1] 0.121 | [2] 0.139 | [3] 0.109 | [4] 0.182

CC1(C)OC(=O)CC(O)[C@@]2(C)C1CC(=O)[C@]1(C)C2CCC2(C)C(c3ccoc3)OC(=O)[C@H]3O[C@]321 (stereo not given in full)
inactive: [1] 0.0277 | [2] 0.0481 | [3] 0.0671 | [4] 0.0691
